Laboratory results: patent publication EP4613329A1, “COMPOUND FOR INHIBITING BRD PROTEIN” (Benobio Co., Ltd., priority 2024, dated 2025)
At least one read-out could not be matched to a standard name with certainty.

System: macular degeneration animal model
Test: Laser burn-induced macular degeneration animal model, OCT and FFA image analysis
Format: in vivo, mouse
Conditions: compounds 0.022 µg/eye, Com. Ex. 4 20 µg/eye; for Lesion size compared to negative control group (FFA) / CTF value: FFA imaging; for Lesion size compared to negative control group (FFA) / Lesion size compared to negative control group (OCT): day 11, negative control = excipient; for CTF value / Volume of lesion: day 11 of macular degeneration induction, both eyes; for Lesion size compared to negative control group (OCT) / Volume of lesion: OCT imaging
Description: After the mouse was subjected to general anesthesia, the eye was applied with anesthetic eye drops to be subjected to additional local anesthesia and additionally induce mydriasis. A macular degeneration animal model was prepared by destroying the Bruch's membrane by inducing laser burn according to macular degeneration induction conditions. […] On day 11 of macular degeneration induction, the mice were subjected to general anesthesia and then injected intraperitoneally with a fluorescent contrast agent. The mouse was placed on the sacrifice table, lubricating gel was dropped into the corresponding eye, and an OCT lens was brought into contact with the mouse's cornea. Image analysis for fluorescein fundus angiography (FFA) and OCT was performed using the Image-J program.

Row | SMILES | Lesion size compared to negative control group (FFA) [%] | CTF value | Lesion size compared to negative control group (OCT) [%] | Volume of lesion
1 | CNC(=O)C1(C)CN(Cc2ccc(-c3ccccc3-c3cccc4c3CN(C)C4=O)o2)CCC1O (stereo not shown) [Compound 25] | 32.66 | 300,650 Pixels | 44.01 | –
2 | CN1Cc2c(cccc2-c2ccccc2-c2ccc(CNCc3cnn(C)c3)o2)C1=O [Compound 18, 2-methyl-4-(2-(5-((((1-methyl-1H-pyrazole-4yl)methyl)amino)methyl)furan-2-yl)phenyl)isoindoline-1-one] | 42.28 | 389,222 Pixels | 45.15 | 983,477 µm^3
3 | CNC(=O)CC1C(=O)NCCN1Cc1oc(-c2ccccc2-c2cccc3c2CN(C)C3=O)cc1C (stereo not shown) [Compound 42, 2-methyl-4-(2-(5-(3-methyl(N-methyl-2-(3-oxopiperazine-2yl)acetamidyl)methyl)furan-2-yl)phenyl)isoindoline-1-one] | 41.48 | 381,846 Pixels | 52.86 | 1,151,561 µm^3
4 | CN1Cc2c(cccc2-c2ccccc2-c2ccc(COCN3CCC(F)(F)CC3)o2)C1=O [Compound 37, 2-methyl-4-(2-(5-((((4,4-difluoropiperidine-1-yl)methoxy)-3-carboxamidyl)methyl)furan-2-yl)phenyl)isoindoline-1-one] | 34.76 | 320,028 Pixels | 46.40 | 1,010,752 µm^3
5 | CN1Cc2c(cccc2-c2ccccc2-c2ccc(CN3CCOCC3)o2)C1=O [Compound 13, 2-methyl-4-(2-(5-(morpholinomethyl)furan-2-yl)phenyl)isoindoline-1-one] | 34.96 | 321,816 Pixels | 57.66 | 1,256,002 µm^3
6 | CCC1(C(=O)NC)CCCN(Cc2oc(-c3ccccc3-c3cccc4c3CN(C)C4=O)cc2C)C1 (stereo not shown) [Compound 40] | 39.37 | 362,456 Pixels | 54.01 | 1,176,522 µm^3
7 | CNC(=O)C1(Cc2ccc(F)cc2)CCN(Cc2oc(-c3ccccc3-c3cccc4c3CN(C)C4=O)cc2C)CC1 [Compound 39, 2-methyl-4-(2-(5-((3-methyl(4-(4-fluorobenzyl)-4'-carboxamidyl)piperidine)methyl)furan-2-yl)phenyl)isoindoline-1-one] | 27.38 | 252,108 Pixels | 58.10 | 1,265,636 µm^3
8 | CNC(=O)C1(Cc2ccc(F)cc2)CCN(Cc2ccc(-c3ccccc3-c3cccc4c3CN(C)C4=O)o2)CC1 [Compound 21, 2-methyl-4-(2-(5-(((4-(4-fluorobenzyl)-4'-carboxamidyl)piperidine)methyl)furan-2-yl)phenyl)isoindoline-1-one] | 27.29 | 251,239 Pixels | 40.79 | 888,502 µm^3
